“And” between values parts separate entries of the source, which are not always exact repeats. Identical values can stand only once. Hit rate of the full screen: of about 220,000 compounds, about 16,000 (7.3%) were called active. This list was built around the results that the source calls inconclusive (neither active nor inactive); the mix of calls is not that of the screen. Calls come from the whole dose curve; as a rule, active = well fitted inhibition curve with a large enough effect (not every such curve was filed as active); inconclusive = small, poorly fitted or top-dose-only effect, or another doubt; inactive = no such curve, though single readings can be large or run the other way. Where the call is inconclusive, the potency comes from a doubtful curve fit.
The compounds below were run against Aldehyde dehydrogenase 1A1 (Homo sapiens) (UniProt P00352) (assay: qHTS Assay for Inhibitors of Aldehyde Dehydrogenase 1 (ALDH1A1)). Conditions: Purified ALDH1A1, NADH fluorescence, propionaldehyde substrate; series mostly up to 75.3 µM.
Chain of UniProt P00352 (P00352 whole entry, looked up): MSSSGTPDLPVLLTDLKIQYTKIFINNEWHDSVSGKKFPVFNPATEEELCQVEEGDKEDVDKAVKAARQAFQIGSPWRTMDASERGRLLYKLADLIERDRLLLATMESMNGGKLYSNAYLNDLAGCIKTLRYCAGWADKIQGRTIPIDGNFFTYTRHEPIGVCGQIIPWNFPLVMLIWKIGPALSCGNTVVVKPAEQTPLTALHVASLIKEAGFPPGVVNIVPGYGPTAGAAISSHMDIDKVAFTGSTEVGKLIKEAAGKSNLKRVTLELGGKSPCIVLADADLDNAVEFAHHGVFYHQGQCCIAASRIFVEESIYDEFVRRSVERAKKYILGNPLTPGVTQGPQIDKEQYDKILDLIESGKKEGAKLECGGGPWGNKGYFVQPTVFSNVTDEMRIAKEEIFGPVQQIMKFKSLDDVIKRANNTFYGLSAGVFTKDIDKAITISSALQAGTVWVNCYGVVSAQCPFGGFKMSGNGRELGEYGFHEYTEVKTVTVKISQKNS
CCCCS(=N)(=O)CC[C@H](N)C(=O)O (stereo not given in full) was tested, and the Potency was “inactive”.
With CC(C)c1ccc(N(CC(=O)Nc2ccc(S(=O)(=O)N3CCOCC3)cc2)S(C)(=O)=O)cc1 the Potency was inconclusive: 25.1 µM [inhibitor, single point].
In the case of Cn1c(SCC(=O)c2ccccc2)nnc1-c1ccncc1, the Potency is reported as inconclusive: 15.8 µM [inhibitor, partial curve].
COc1ccc(NC(=O)c2c[nH]n3c(=O)cc(C4CCN(C(=O)OC(C)(C)C)CC4)nc23)cc1Cl was tested, and the Potency was inconclusive: 12.6 µM [inhibitor, partial curve].
With Cc1cc(N/N=C/c2cccc(Cl)c2)nc(NCc2ccccc2)n1 the Potency was “inactive”.
For CCOC(=O)C1=C(O)C(=O)NC(c2ccccc2)=C(OCC)C1, the Potency was inconclusive: 39.8 µM [inhibitor, single point].
With Cc1ccnc(NC(=O)c2ccc3c(c2)C(=O)N(CC2CCCO2)C3=O)c1 (stereo not given) the Potency was inconclusive: 14.1 µM [inhibitor, partial curve].
In the case of N#CCc1nc(CSc2nc3ccccc3s2)cs1, the Potency is reported as inconclusive: 37.7 µM [inhibitor, single point].
In the case of COCCCNc1nc2ccccc2nc1NS(=O)(=O)c1cccs1, the Potency is reported as inconclusive: 39.8 µM [inhibitor, single point].
CCOc1ccc(OCC)c(NC(=O)C2CCN(S(=O)(=O)c3c(C)noc3C)CC2)c1 was tested, and the Potency was “inactive”.
In the case of CCOC(=O)C1CCN(c2c(NCc3ccc(C(=O)NCCC(C)C)cc3)c(=O)c2=O)CC1, the Potency is reported as “inactive”.
With Cc1ccc(Cn2c(CN3CCOCC3)nc3c2c(=O)[nH]c(=O)n3C)cc1 the Potency was inconclusive: 39.8 µM [inhibitor, single point].
O=C(CC1SC(=Nc2ccc3c(c2)OCCO3)NC1=O)Nc1ccc(F)cc1F (stereo not given) was tested, and the Potency was inconclusive: 25.1 µM [inhibitor, single point].
With COC(=O)c1sccc1NC(=O)CSc1nnnn1-c1ccccc1F the Potency was active: 14.1 µM.
For CCOC(=O)N1CCN(S(=O)(=O)c2cccs2)CC1, the Potency was “inactive”.
In the case of COCc1cc(C)nc2sc3c(=O)n(-c4cccc5ccccc45)nnc3c12, the Potency is reported as inconclusive: 44.7 µM [inhibitor, single point].
COc1ccc(N2C(=O)[C@@H]3[C@H](C2=O)[C@H]2c4ccccc4C=CN2[C@@H]3C(C)=O)cc1 was tested, and the Potency was active: 31.6 µM.
For O=C(CCNC(=O)Cn1cnc2ccccc2c1=O)NCCC1=CCCCC1, the Potency was inconclusive: 28.2 µM [inhibitor, single point].
O=c1c2ccccc2c(-c2ccccc2)nn1Cc1ccccc1 was tested, and the Potency was inconclusive: 22.4 µM [inhibitor, single point].
In the case of COc1ccc(C(=O)CC(Nc2ccc([N+](=O)[O-])cc2)c2ccc(Cl)cc2)cc1 (stereo not given), the Potency is reported as “inactive”.
With COC(=O)c1c(NC(=S)Nc2ccccc2Cl)sc(C)c1C the Potency was inconclusive: 39.8 µM [inhibitor, single point].
COc1ccc2ccccc2c1/C=N/NC(=S)Nc1cc(S(=O)(=O)N2CCOCC2)ccc1N1CCOCC1 was tested, and the Potency was “inactive”.
CCN1C(=O)CC(N2CCN(c3ccc(OC)cc3)CC2)C1=O (stereo not given) was tested, and the Potency was inconclusive: 39.8 µM [inhibitor, single point].
With Cc1ccc(-c2cc(=O)c3cc(C)ccc3[nH]2)cc1 the Potency was inconclusive: 20 µM [inhibitor, single point] and inconclusive: 70.8 µM [inhibitor, single point].
With O=c1c2ccccc2nc2ccccn12 the Potency was inconclusive: 31.6 µM [inhibitor, partial curve].
CC/C(=N\NC(=O)c1c[nH]c2ccccc12)c1cccs1 was tested, and the Potency was inconclusive: 35.5 µM [inhibitor, single point].
With Cc1sc2nc3c4ccccc4c(NCc4ccco4)nn3c(=O)c2c1C the Potency was inconclusive: 14.1 µM [inhibitor, partial curve].
With Cc1cccc(CCNC(=O)C2CCC(CNc3c(N4CCCC4)c(=O)c3=O)CC2)c1 (stereo not given) the Potency was inconclusive: 39.8 µM [inhibitor, single point].
For CC(=O)OCC1OC(c2ccc(C(C)=O)cc2)C=CC1OC(C)=O (stereo not given), the activity, negative = inhibition was inactive: 2.68% [at 13.5 µM].
COc1ccccc1NS(=O)(=O)c1cccc(C(=O)NN=C2CCCC2)c1 was tested, and the Potency was active: 12.6 µM.
With COc1ccccc1/C=C(/C(=O)OCC(=O)Nc1ccccc1C(C)C)c1ccccc1 the Potency was “inactive”.
In the case of Cc1cc(C)cc(OCCNS(=O)(=O)c2cccs2)c1, the Potency is reported as inconclusive: 28.2 µM [inhibitor, single point].
For Oc1c(N=NC(=S)Nc2ccccc2F)c2ccccc2n1Cc1ccc(F)cc1, the Potency was active: 15.8 µM.
In the case of Oc1ccc(N=Nc2n[nH]c(-c3ccccc3)n2)cc1, the Potency is reported as inconclusive: 39.8 µM [inhibitor, single point].
With CCn1c(C)nc2cc(C(=O)NNS(=O)(=O)c3c(F)cc(F)c(Cl)c3F)ccc21 the Potency was “inactive”.
For Cc1ccccc1NC(=O)/C=C1\SC(=O)NC1=O, the Potency was inconclusive: 35.5 µM [inhibitor, single point].
In the case of Cc1ccccc1C(=O)NCC(=O)NNC(=S)NC(=O)c1ccccc1C, the Potency is reported as “inactive”.
CCOC(=O)Cn1nnnc1C(CC)N(Cc1ccccc1)Cc1cc2cc(C)ccc2[nH]c1=O (stereo not given) was tested, and the Potency was inconclusive: 37.7 µM [inhibitor, single point].
For CN1CCN(c2ncc3nc(-c4ccc(Cl)cc4)c(=O)n(-c4ccccc4)c3n2)CC1, the Potency was inconclusive: 20 µM [inhibitor, partial curve].
With CC(C(=O)N1CCCc2ccccc21)N1CCN(c2ccccn2)CC1 (stereo not given) the Potency was inconclusive: 39.8 µM [inhibitor, single point].
In the case of Cc1ccc(S(=O)(=O)/N=C(\N)Nc2nc(C)c3cc(C)ccc3n2)cc1, the Potency is reported as inconclusive: 39.8 µM [inhibitor, single point].
O=C(NCc1cccnc1)c1cccs1 was tested, and the Potency was “inactive”.
With Cc1ccccc1Nc1nnc(SCc2cc(=O)n3ccsc3n2)s1 the Potency was inconclusive: 39.8 µM [inhibitor, single point].
For CCCn1c(-c2cccs2)nc2ccccc21, the Potency was inconclusive: 31.6 µM [inhibitor, partial curve].
With O=S(=O)(c1cccc2nsnc12)N1CCCC1 the Potency was inconclusive: 39.8 µM [inhibitor, single point].
For COCC(C)NCc1ccccc1C (stereo not given), the Potency was “inactive”.
With CCC(NC(=O)Cn1cnc2c(=O)n(C)c(=O)n(C)c21)c1ccccc1 (stereo not given) the Potency was inconclusive: 22.4 µM [inhibitor, single point].
In the case of CCOC(=O)c1ccc(S(=O)(=O)NNC(=O)COc2ccccc2C)cc1, the Potency is reported as inconclusive: 7.94 µM [inhibitor, single point].
With Cc1cc2c(ncn2C)c(NS(=O)(=O)c2ccc(F)cc2)c1C the Potency was “inactive”.
In the case of COC(=O)N/N=C/c1cccs1, the Potency is reported as “inactive”.
In the case of COc1ccc(N2CCN(Cc3nc4c(c(=O)n(C)c(=O)n4C)n3Cc3cccc(C)c3)CC2)cc1, the Potency is reported as inconclusive: 12.6 µM [inhibitor, partial curve].
In the case of Cc1ccc(C2=C/C(=C/c3cccnc3)C(=O)O2)c(C)c1, the Potency is reported as inconclusive: 39.8 µM [inhibitor, single point].
In the case of CCOC(=O)c1sc(=NC(=O)c2ccc(OC)c(OC)c2)n(C)c1C, the Potency is reported as inconclusive: 17.8 µM [inhibitor, partial curve].
In the case of Cc1cc([N+](=O)[O-])nn1CCCC(=O)Nc1cc(Oc2ccc(F)cc2)cc([N+](=O)[O-])c1, the Potency is reported as inconclusive: 44.7 µM [inhibitor, single point].
For COc1ccc(Nc2c3c(c(C#N)c4nc5ccccc5n24)CCC3)cc1, the Potency was inconclusive: 7.08 µM [inhibitor, partial curve, poor fit].
For CC(=O)CCc1ccc(OCCCCn2cncn2)cc1, the Potency was inconclusive: 31.6 µM [inhibitor, single point].
For CCCOC(=O)c1cc(-c2ccc(C=O)o2)ccc1Cl, the Potency was inconclusive: 20 µM [inhibitor, partial curve].
CN(C)CCCNC(=O)/C=C/c1ccc2c(c1)OCO2 was tested, and the Potency was inconclusive: 37.7 µM [inhibitor, single point].
In the case of Cc1ccc2cc(C(c3nnnn3C3CCCC3)N(Cc3ccco3)Cc3cccs3)c(=O)[nH]c2c1 (stereo not given), the Potency is reported as inconclusive: 25.1 µM [inhibitor, partial curve].
With Cc1ccc(S(=O)(=O)CC(=O)Nc2nc(-c3ccccc3)cs2)cc1 the Potency was inconclusive: 25.1 µM [inhibitor, single point].
O=C(c1ccccc1-c1ncc[nH]1)N1CCc2c([nH]c3ccccc23)C1c1ccccn1 (stereo not given) was tested, and the Potency was “inactive”.
With CCN1CCc2c(C#N)c(NCc3ccccc3)nc(N(CC)CC)c2C1 the Potency was inconclusive: 39.8 µM [inhibitor, single point].
CC(=O)Nc1ccc(S(=O)(=O)NCc2cccnc2)cc1 was tested, and the Potency was “inactive”.
CCCC(=O)NC(NC1CCS(=O)(=O)C1)C(Cl)(Cl)Cl (stereo not given) was tested, and the Potency was inconclusive: 31.6 µM [inhibitor, partial curve].
For Cc1nn(Cc2ccc([N+](=O)[O-])cc2)c(=O)n1-c1ccccc1Cl, the Potency was inconclusive: 28.2 µM [inhibitor, single point].
With CCc1ccc(NC(=O)CSc2ccccn2)cc1 the Potency was inconclusive: 39.8 µM [inhibitor, single point].
In the case of CCOC(=O)c1[nH]c2ccc(C)cc2c1N, the Potency is reported as inconclusive: 39.8 µM [inhibitor, single point].
For C/C(=N\NC(=O)c1ccc(COc2ccccc2)cc1)c1ccncc1, the Potency was active: 25.1 µM.
For Cc1ccc(C(=O)N2CCC(C(=O)NCc3cccnc3)CC2)cc1, the Potency was inconclusive: 28.2 µM [inhibitor, partial curve].
With O=C(Nc1ccc(-c2nc3ccccc3o2)cc1)C1CCCO1 (stereo not given) the Potency was inconclusive: 28.2 µM [inhibitor, partial curve].

From PubChem BioAssay AID1030 (National Center for Advancing Translational Sciences (NCATS), 2008)
Potency is the fitted concentration of half-maximal effect; tags give direction and shape of the fitted curve.
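Throughout, for activity, negative = inhibition: plate controls were no enzyme wells and a reference inhibitor.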
